# Reference: the BET-seq Pho4 binding data (Le et al. 2018)
# The other results are listed elsewhere or left out. Values were computed here from the reads of four pooled replicates and scatter widely.
# Target: T1, Pho4 (S. cerevisiae) (UniProt P07270)
# T1 sequence: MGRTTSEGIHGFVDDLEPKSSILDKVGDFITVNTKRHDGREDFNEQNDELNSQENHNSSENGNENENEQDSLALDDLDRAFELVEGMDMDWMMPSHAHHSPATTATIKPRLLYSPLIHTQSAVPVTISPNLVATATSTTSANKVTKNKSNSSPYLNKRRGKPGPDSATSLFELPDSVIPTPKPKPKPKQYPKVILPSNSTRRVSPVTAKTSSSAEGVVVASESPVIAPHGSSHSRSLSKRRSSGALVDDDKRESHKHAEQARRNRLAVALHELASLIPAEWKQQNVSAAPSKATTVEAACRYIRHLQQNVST
# Experiment: relative binding free energy (BET-seq); higher = weaker binding
# Settings: reference: library average
row,Sequence,relative binding free energy
1,GTAAGCACGTGGAGGT,0.16 kcal/mol
2,TGGGGCACGTGCAAAT,-0.02 kcal/mol
3,AGAGGCACGTGATTGT,0.02 kcal/mol
4,TGGGACACGTGAGTGC,0.26 kcal/mol
5,TTGGGCACGTGAAAGC,0.11 kcal/mol
6,GTACGCACGTGCTTGG,-0.02 kcal/mol
7,AGGTTCACGTGCGGGT,0.25 kcal/mol
8,GAGTACACGTGGATAT,0.34 kcal/mol
9,GGTTCCACGTGTGCGT,0 kcal/mol
10,GGGGACACGTGAGCAT,0.24 kcal/mol
11,AAGTTCACGTGTTAAT,0.25 kcal/mol
12,ATTATCACGTGCGATG,0.22 kcal/mol
13,GAATGCACGTGTCGGG,0.12 kcal/mol
14,AGTCTCACGTGGTACT,0.32 kcal/mol
15,TTTTTCACGTGATAGG,0.47 kcal/mol
16,ACTGGCACGTGGAGTG,-0.01 kcal/mol
17,TGTGTCACGTGGGTCT,0.01 kcal/mol
18,TTAGTCACGTGCGGTC,0.07 kcal/mol
19,TTATACACGTGTAGTG,-0.07 kcal/mol
20,TGGTCCACGTGATGAT,0.15 kcal/mol
21,TCTTTCACGTGAGGTG,0.29 kcal/mol
22,TTGATCACGTGTCGGC,0.19 kcal/mol
23,AGCGACACGTGTTTGG,-0.11 kcal/mol
24,GCGGGCACGTGGGAGT,-0.12 kcal/mol
25,AAGGTCACGTGGCTAG,0.15 kcal/mol
26,AAGTGCACGTGAGCGG,0.23 kcal/mol

row,Sequence,relative binding free energy
1,CTAATCACGTGAGGTG,0.29 kcal/mol
2,GTTGACACGTGGGATT,-0.07 kcal/mol
3,TGAGACACGTGATAGG,0.1 kcal/mol
4,TCGTACACGTGGTATG,0.05 kcal/mol
5,CGGATCACGTGGTGTA,0.04 kcal/mol
6,AGATGCACGTGGATGA,0 kcal/mol
7,GTTATCACGTGTATGC,0.2 kcal/mol
8,TTATTCACGTGGAGTC,0.35 kcal/mol
9,TGAAACACGTGATTGT,0.12 kcal/mol
10,GTTAGCACGTGGGAAG,-0.07 kcal/mol
11,GTAGGCACGTGTCTGG,-0.16 kcal/mol
12,GAGCGCACGTGGTGTG,-0.13 kcal/mol
13,TTTATCACGTGATTAC,0.27 kcal/mol
14,TCTTGCACGTGTGTTG,-0.04 kcal/mol
15,AGTATCACGTGTTGGG,0.01 kcal/mol
16,AGTGGCACGTGTATGG,-0.09 kcal/mol
17,AGTATCACGTGAAGGA,0.43 kcal/mol
18,CGGAGCACGTGGGTCG,-0.36 kcal/mol
19,ATAATCACGTGTGGCA,0.15 kcal/mol
20,TTTGACACGTGCGAGA,0.12 kcal/mol
21,TTACACACGTGTAAGG,0.11 kcal/mol
22,TTTAGCACGTGAATTG,0.26 kcal/mol
23,GGTAGCACGTGCGGCA,-0.14 kcal/mol
24,GGTATCACGTGAGGAG,0.44 kcal/mol
25,CTTTACACGTGGGGTT,-0.08 kcal/mol
26,GACGGCACGTGGGAAG,-0.05 kcal/mol

row,Sequence,relative binding free energy
1,TGGGACACGTGCCGGG,-0.08 kcal/mol
2,GGGAGCACGTGTTGTA,-0.01 kcal/mol
3,AAAGTCACGTGCGGTA,0.05 kcal/mol
4,TGTTACACGTGTTAAG,-0.07 kcal/mol
5,CACGTCACGTGGTGTT,0.05 kcal/mol
6,GCTGGCACGTGGTTTT,-0.1 kcal/mol
7,TAAGTCACGTGGGAGG,-0.02 kcal/mol
8,TGGTGCACGTGGACGC,-0.04 kcal/mol
9,GGTTTCACGTGGCTAT,0.14 kcal/mol
10,GTGGTCACGTGAGGAT,0.47 kcal/mol
11,GTCGGCACGTGTCAGG,0.04 kcal/mol
12,TTTAACACGTGTAAAT,0.07 kcal/mol
13,GATGTCACGTGGTGTC,0.16 kcal/mol
14,CGGAACACGTGGGAGT,-0.1 kcal/mol
15,GTTGGCACGTGACGGT,0.11 kcal/mol
16,GGGAGCACGTGCGGCT,-0.12 kcal/mol
17,GATGGCACGTGGGCGA,-0.17 kcal/mol
18,GGTTTCACGTGGGCGT,0.21 kcal/mol
19,CAGGGCACGTGTTGTA,-0.15 kcal/mol
20,GTTCGCACGTGGAGGG,-0.07 kcal/mol
21,TTGCGCACGTGCTGGA,-0.14 kcal/mol
22,GGAGGCACGTGGTCAA,-0.08 kcal/mol
23,CTGGACACGTGATATT,0.21 kcal/mol
24,ACATTCACGTGGTAGG,0.27 kcal/mol
25,TTGCGCACGTGGGTGG,-0.25 kcal/mol
26,ATGTTCACGTGACGAG,0.43 kcal/mol

row,Sequence,relative binding free energy
1,GGGGGCACGTGAAGTG,0.2 kcal/mol
2,CGGGGCACGTGCACGG,-0.2 kcal/mol
3,CATGTCACGTGCTAGG,0.1 kcal/mol
4,ATGGGCACGTGTTGCT,-0.08 kcal/mol
5,TGAGGCACGTGCATTT,-0.16 kcal/mol
6,ATTTTCACGTGTAAGC,0.37 kcal/mol
7,TGTGTCACGTGTTTGG,0.04 kcal/mol
8,AGTACCACGTGGGGCT,-0.18 kcal/mol
9,AGTGCCACGTGGGGTT,-0.2 kcal/mol
10,AGCGGCACGTGGTTGC,-0.09 kcal/mol
11,TAGTACACGTGAGAGG,0.09 kcal/mol
12,ACTGGCACGTGGGCGG,-0.26 kcal/mol
13,CGTTGCACGTGAAAGG,0.22 kcal/mol
14,AAGTCCACGTGGTGGA,0.11 kcal/mol
15,CTGAGCACGTGGGGAG,-0.25 kcal/mol
16,GGACGCACGTGATATG,0.11 kcal/mol
17,TGTGCCACGTGGTTGC,-0.18 kcal/mol
18,AAGGTCACGTGTCATG,0.18 kcal/mol
19,AAGGTCACGTGGTGCA,0.04 kcal/mol
20,CTTGACACGTGAAGGT,0.28 kcal/mol
21,CGTTACACGTGTAGGT,0.12 kcal/mol
22,TTTGTCACGTGTAAAT,0.21 kcal/mol
23,CTTATCACGTGAGGTA,0.19 kcal/mol
24,TGCTGCACGTGGTATT,-0.11 kcal/mol
25,CTTAGCACGTGTTCGT,-0.17 kcal/mol
26,TTGGTCACGTGGTCTA,0.07 kcal/mol

row,Sequence,relative binding free energy
1,TGTTACACGTGCTTTG,0.09 kcal/mol
2,AGCGTCACGTGGGCGG,-0.06 kcal/mol
3,TAGAACACGTGGTGAG,-0.04 kcal/mol
4,AGGGGCACGTGATAGC,-0.13 kcal/mol
5,TTGTACACGTGCCGTG,0.03 kcal/mol
6,TTGCGCACGTGTTCTG,-0.09 kcal/mol
7,GTTTACACGTGAGTCT,0.3 kcal/mol
8,AGGAACACGTGGGTGG,-0.14 kcal/mol
9,AATGGCACGTGAGGGT,0.13 kcal/mol
10,ACCGTCACGTGTTGGG,0.18 kcal/mol
11,GGTTTCACGTGAGGTC,0.55 kcal/mol
12,TTGGTCACGTGGGCTG,0.04 kcal/mol
13,AGTGCCACGTGGGGGT,-0.26 kcal/mol
14,ATTAGCACGTGTTGTA,-0.13 kcal/mol
15,GGAGGCACGTGGAGGA,-0.17 kcal/mol
16,GGTTTCACGTGTTTCG,0.35 kcal/mol
17,ATTTTCACGTGATATT,0.22 kcal/mol
18,GTCAGCACGTGAGTGG,0.14 kcal/mol
19,TGTGACACGTGCTGAT,-0.04 kcal/mol
20,TCAGGCACGTGGCTTG,-0.05 kcal/mol
21,GCGCGCACGTGGTGTG,-0.29 kcal/mol
22,GGTGGCACGTGATCTA,0.05 kcal/mol
23,TTGGACACGTGGTCGT,-0.09 kcal/mol
24,GTAGACACGTGGGTTT,-0.11 kcal/mol
25,TTGTTCACGTGCGTTC,0.26 kcal/mol
26,GTTGACACGTGGAAGT,0.14 kcal/mol

row,Sequence,relative binding free energy
1,GGCGTCACGTGGTAAT,0.05 kcal/mol
2,GGTCGCACGTGTGGCG,0.05 kcal/mol
3,TTTGACACGTGAGTTT,0.25 kcal/mol
4,TTGATCACGTGAAGAA,0.55 kcal/mol
5,CGTTTCACGTGAATAG,0.32 kcal/mol
6,AGGGGCACGTGGAGAT,-0.07 kcal/mol
7,GATTTCACGTGTCTGT,0.37 kcal/mol
8,GTAGCCACGTGAGTGG,0.36 kcal/mol
9,GGACACACGTGTTGGT,0.08 kcal/mol
10,TCAGCCACGTGAGGGT,0.29 kcal/mol
11,GTACGCACGTGATTGT,0.07 kcal/mol
12,TAGGACACGTGTGGCT,0.06 kcal/mol
13,TGATACACGTGAGTGT,0.24 kcal/mol
14,AAGTACACGTGGGTGT,-0.18 kcal/mol
15,TTTAACACGTGCAGGG,-0.01 kcal/mol
16,CTGAGCACGTGTAGGT,-0.04 kcal/mol
17,GTTAACACGTGTTGCT,0.07 kcal/mol
18,GGTACCACGTGGTGCG,-0.17 kcal/mol
19,TGTTTCACGTGAAATT,0.44 kcal/mol
20,CTGATCACGTGGGATG,0.13 kcal/mol
21,TTTGTCACGTGTGTAC,0.24 kcal/mol
22,ATTTGCACGTGCAGCT,0.05 kcal/mol
23,ATGGACACGTGGGAAT,-0.03 kcal/mol
24,GGAGGCACGTGTGCAG,-0.06 kcal/mol
25,TGCGACACGTGAGGGG,0.26 kcal/mol
26,ATGTTCACGTGCTGCG,0.23 kcal/mol

row,Sequence,relative binding free energy
1,TTTTGCACGTGCGCAG,0.04 kcal/mol
2,GGGAGCACGTGCTGCG,-0.17 kcal/mol
3,TGGTGCACGTGCGTGT,-0.12 kcal/mol
4,ATGTTCACGTGTTAAA,0.32 kcal/mol
5,CTGGGCACGTGATGCT,0.08 kcal/mol
6,GCTGTCACGTGATTGT,0.09 kcal/mol
7,AGTGTCACGTGCGTTG,-0.07 kcal/mol
8,TGGATCACGTGTATTA,0.21 kcal/mol
9,TCTGACACGTGTGCGG,0.08 kcal/mol
10,ATCATCACGTGTGTTT,0.14 kcal/mol
11,TTAAGCACGTGATTTT,0.11 kcal/mol
12,AAGGTCACGTGATCAT,0.27 kcal/mol
13,GGTTACACGTGGCGAT,0.07 kcal/mol
14,TTGTACACGTGTCCGT,0.11 kcal/mol
15,ATCGCCACGTGGGAGG,0.01 kcal/mol
16,GTGCTCACGTGAGGTC,0.39 kcal/mol
17,ATTATCACGTGGATGA,0.26 kcal/mol
18,TAAGTCACGTGTTAGT,0.07 kcal/mol
19,TGCGGCACGTGTGTTT,0.04 kcal/mol
20,GGCTACACGTGTCTGG,0.15 kcal/mol
21,CTTTACACGTGGAGTT,0.18 kcal/mol
22,GCTGTCACGTGTGTTG,0.16 kcal/mol
23,TGTATCACGTGGCTAG,-0.03 kcal/mol
24,TAGTACACGTGGAGAT,-0.01 kcal/mol
25,TAATTCACGTGTGGCT,0.24 kcal/mol
26,GGGTACACGTGTATAA,0.09 kcal/mol

row,Sequence,relative binding free energy
1,TCGTACACGTGTTTGA,-0.04 kcal/mol
2,AGATGCACGTGGCGAG,-0.02 kcal/mol
3,CGTTGCACGTGCGGCG,0.09 kcal/mol
4,GTTGTCACGTGCGGAG,0.04 kcal/mol
5,GTTGGCACGTGAAATT,0.39 kcal/mol
6,GTGTACACGTGCTTGG,-0.02 kcal/mol
7,TCTAGCACGTGATGTA,0.16 kcal/mol
8,GATAGCACGTGGGGCC,0.12 kcal/mol
9,CTTCACACGTGTTTGG,0.13 kcal/mol
10,CGTTCCACGTGTGGTG,0.11 kcal/mol
11,CTGTCCACGTGTTGGG,0.13 kcal/mol
12,GAGTGCACGTGAGCGG,0.25 kcal/mol
13,AAGTACACGTGTGAGT,0.15 kcal/mol
14,TCGGTCACGTGAGGCT,0.2 kcal/mol
15,GTTTCCACGTGCTGGT,-0.01 kcal/mol
16,GGATTCACGTGAGGGT,0.43 kcal/mol
17,TTTGGCACGTGGATTG,-0.03 kcal/mol
18,TGGTTCACGTGTGTCC,0.16 kcal/mol
19,TTCGACACGTGTTGGG,0.05 kcal/mol
20,TATTGCACGTGCGTTG,0.01 kcal/mol
21,TCTATCACGTGTTGTA,0.15 kcal/mol
22,TTGGGCACGTGTGTGC,-0.04 kcal/mol
23,CGGATCACGTGTGGTT,0.13 kcal/mol
24,GTTACCACGTGGGGTA,-0.15 kcal/mol
25,GGGGGCACGTGTGCAG,-0.02 kcal/mol
26,TATAGCACGTGTCTTT,-0.14 kcal/mol

row,Sequence,relative binding free energy
1,TGTGACACGTGCGTAT,-0.2 kcal/mol
2,GGCATCACGTGGGTTG,0.03 kcal/mol
3,AATTTCACGTGTCGGC,0.32 kcal/mol
4,TGGGTCACGTGTGTGC,0.18 kcal/mol
5,GCTAGCACGTGTGGTG,-0.15 kcal/mol
6,TAAATCACGTGGAGGG,0.14 kcal/mol
7,ACTGCCACGTGGTGTG,-0.01 kcal/mol
8,TGATACACGTGGTTTG,-0.03 kcal/mol
9,AATTACACGTGGGGCT,-0.05 kcal/mol
10,AAGATCACGTGCTGGT,0.05 kcal/mol
11,AGTGGCACGTGTAAGA,0.02 kcal/mol
12,AGGCACACGTGTTAGT,-0.01 kcal/mol
13,GTGCTCACGTGACGGG,0.56 kcal/mol
14,TCTTTCACGTGAGTTG,0.43 kcal/mol
15,CGGGTCACGTGTTAGA,0.06 kcal/mol
16,GTGTACACGTGAGACT,0.44 kcal/mol
17,ATGAACACGTGGTATA,-0.06 kcal/mol
18,TTTGCCACGTGCTTGG,-0.11 kcal/mol
19,GGTTTCACGTGTCAGC,0.27 kcal/mol
20,GTAGCCACGTGTAGTA,0.16 kcal/mol
21,ATATTCACGTGGAGGC,0.22 kcal/mol
22,CTTGACACGTGGATTT,0 kcal/mol
